Assay results from PubChem BioAssay AID1963576 (National Center for Advancing Translational Sciences (NCATS), 2024).
The campaign covered roughly 46,000 compounds. About 60 (0.1%) were called active. Another 3% or so got no clear call; they are omitted. The call rests on the fitted dose curve; in most records, active means well fitted inhibition curve with a large enough effect; inconclusive means small, poorly fitted or top-dose-only effect; inactive means no such curve, though single readings can be large or run the other way. The list shows a part of the results.

Assay: Primary qHTS assay for Inhibitors of ovarian cancer metastasis using an organotypic tumor microenvironment (TME) model. Further: nearly all actives have a fitted effect of over 65% in size.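 On activity change, negative = inhibition: plate controls were DMSO wells for no effect and tomatine positive control wells for full effect.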
Settings: SKOV3ip1-GFP adhesion/invasion on 3D omental model, fluorescence; series mostly up to 45.8 µM; activity change, negative = inhibition: at the top concentration
Method in brief: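 Adhesion/invasion was scored as fixed GFP-labeled SKOV3ip1 cell counts (488/509 nm), normalized to DMSO and tomatine controls. Cancer cells in serum-free medium, with four compound doses (0.36-46 umol/L), sat 2 hr at RT then 16 hr at 37 C on a 48 hr fibroblast/mesothelial/ECM culture.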

outcome, inactive:
COc1cc(NC(=O)CCc2c(C)nc3c(-c4ccc(F)cc4)c(C)nn3c2C)cc(OC)c1OC
CCc1nn(CC(=O)NCCc2ccc(OC)c(OC)c2)c(=O)c2cc3occc3n12
COc1ccc(NC(=O)C2CCCN(S(=O)(=O)c3c(C)[nH]c(=O)[nH]c3=O)C2)cc1 (centres undefined)
CCOC(=O)c1c(C)[nH]c(C)c1S(=O)(=O)N(C)CC(=O)NCc1ccc(C)cc1
COc1ccc(-c2nn(-c3ccc(C)c(Cl)c3)c3c2cnc2cc(OC)c(OC)cc23)cc1
CCn1cc(S(=O)(=O)c2ccc(OC)cc2)c(=O)c2cc(F)c(N3CCCCCC3)cc21
CCN1CCN(c2nc3c(S(=O)(=O)c4ccc(C)cc4)nnn3c3ccsc23)CC1
Cc1c(C(=O)NCc2cccc(F)c2)oc2c1-c1[nH]ncc1CC2
CC(C)(C)c1ccc(C(=O)Nc2ccc(NC(=O)c3ccc(Cl)c(Cl)c3)cc2)cc1
Cn1c(=O)[nH]c(=O)c2c1nc(CN1CCN(c3ccccc3)CC1)n2Cc1c(F)cccc1Cl
COc1cccc(NC(=O)Nc2ccc3snnc3c2)c1
CCOCCCn1c(SCC(=O)NCc2ccccc2)nc2c(sc3ccccc32)c1=O
CCn1cc(C(=O)NCCN(CC(C)C)CC(C)C)c(=O)c2cc(S(=O)(=O)N(C)C3CCCCC3)ccc21
COc1cc([N+](=O)[O-])ccc1NC(=O)N1CCC2(CC1)Nc1ccccc1-n1cccc12
CCOc1ccc(C(=O)Nc2cccc(NC(=O)c3ccc(Cl)cc3Cl)c2)cc1
CCc1cccc(N2C(=O)CS(=O)(=O)C23C(=O)N(Cc2ccccc2)c2ccc(C)cc23)c1 (centres undefined)
COc1ccc(-c2cc(C(F)(F)F)n3ncc(-c4ccccc4)c3n2)cc1
Cc1cc(C)c(NC(=O)C2CCN(C(=O)N3CCOc4ccccc43)CC2)c(C)c1
COc1cc2c(cc1NC(=O)COc1ccc(Br)cc1)oc1ccccc12
CCOC(=O)c1cccc(NS(=O)(=O)c2ccc(-c3coc(C)n3)cc2)c1
CC(=O)N1CCc2cc(Br)cc(S(=O)(=O)NCCc3cccc(C)c3)c21
COc1cccc(NC(=O)/C(C#N)=C/c2c(C)n(Cc3ccccc3)c3ccccc23)c1
CCOC(=O)c1c(C)[nH]c(C)c1S(=O)(=O)N1CCCC(C(=O)Nc2cccc(CC)c2)C1 (centres undefined)

Activity change, negative = inhibition, inactive:
CCOC(=O)COc1cc(C)c(Cl)cc1C(=O)c1ccn2nc(-c3ccc(OC)cc3)cc2n1 0.459%
COc1ccc(NC(=O)c2cccn2-c2nnc(N3CCCCC3)s2)c(OC)c1 -7.3%
CS(=O)(=O)Nc1ccc(-c2nc3ccccc3s2)cc1 2.39%
O=C(CSc1ncc2c(n1)-c1cc(Cl)ccc1N(Cc1ccccc1)S2(=O)=O)NCCc1ccccc1 2.46%
Cc1ccc(NC(=O)Nc2c(C)n(C)n(-c3ccccc3)c2=O)c(Cl)c1 -11%
COc1ccccc1NC(=O)c1ccc(-c2nc(COc3ccc(C)cc3)c(C)o2)cc1 2.15%
CCOc1ccc(NC(=O)C2=C(C)C(=O)OC23CCC(C)CC3)cc1 (centres undefined) -1.2%
CCOC(=O)c1ccc(NC(=O)CSc2nc(-c3ccc(F)cc3)cc(C(F)(F)F)c2C#N)cc1 18.1%
CCCCOc1ccc(CNC(=O)CN2C(=O)CCn3nc(-c4cn(C)c5ccccc45)cc32)cc1 -4.5%
CCC1CN(C(=O)NCc2ccc(F)cc2)c2cc(Cl)ccc2O1 (centres undefined) 9.45%
CC(C)c1ccc(NC(=O)Cc2ccc(NC(=O)N3CCCCc4ccccc43)cc2)cc1 -13.5%
COc1ccc(C2CC(=O)c3cc(-c4nc(-c5ccc(C)cc5)cs4)c(=O)[nH]c3C2)cc1 (centres undefined) 1.39%
CCOc1cccc(CNC(=O)c2ccc(N3CCCC3)c(NC(=O)Nc3ccccc3CC)c2)c1 -5.31%
Nc1nc(Nc2cccc(Cl)c2)sc1C(=O)c1ccc(F)cc1 -17.2%
CCOc1ccc(/C=C/C(=O)Nc2sc3c(c2C(=O)OC)CCCC3)cc1 -12.1%
COc1ccc(S(=O)(=O)NCCc2csc(-c3cccc(F)c3)n2)cc1OC 0.987%
COc1cc(OC)c(NC(=O)CC(C)S(=O)(=O)c2ccc3c(c2)NC(=O)CO3)cc1Cl (centres undefined) 2.44%
CCc1ccc2oc(-c3cccc(NC(=O)COc4ccccc4Cl)c3)nc2c1 -4.12%
CCOc1ccc2nc(N3CCCC(C(=O)Nc4ccc(CC)cc4)C3)sc2c1 (centres undefined) -8.55%
CCC(Oc1ccccc1)C(=O)Nc1cc(-c2ccccc2F)nn1-c1ccccc1 (centres undefined) 2.87%
CCN(CC)S(=O)(=O)c1ccc2c(c1)N(CC(=O)NCCc1ccccc1)C(=O)CO2 5.51%
CCCCNC(=O)CCn1nc(-c2ccc(Cl)cc2)c2ccccc2c1=O 4.21%
CCCCOc1ccc(CNC(=O)c2cnc3sc(N4CCCCCC4)nn3c2=O)cc1 24.4%
CC(=O)OCCN1C(=O)c2c(C)nc3ccc(S(=O)(=O)N4CCOCC4)cc3c2C1=O -13.6%
Cc1cccc(C(=O)n2nc(-c3cccnc3)nc2NCc2ccc(F)cc2)c1 -2.76%
Cc1ccc(NC(=O)Cn2c(=O)nc(-c3ccccc3)c3ccccc32)cc1 5.62%
CCN(CC)C(=O)c1ccc2c(c1)N(Cc1ccccc1F)C(=O)c1ccccc1S2=O (centres undefined) -8.48%
COc1cc(NC(=O)C(CC(C)C)N2Cc3ccccc3C2=O)cc(OC)c1 (centres undefined) -16.2%
CCOc1ccc(NC(=O)CSc2nc3ccsc3c(=O)n2CC)cc1 -14.5%
CCC(=O)N1CCc2cc(S(=O)(=O)NC(Cc3ccccc3)C(=O)NCc3ccccc3OC)ccc21 (centres undefined) 0.465%
Cc1cccc(NC(=O)c2ccc3[nH]c(C)cc(=O)c3c2)c1 0.451%
COc1ccc(-c2cc(C)no2)cc1S(=O)(=O)N1CCCC(C)C1 (centres undefined) -1.29%
COc1ccc(NC(=O)c2nnn(CC(=O)Nc3cccc(C)c3C)c2N)c(OC)c1 -10.4%
Cn1c(=O)n(C)c2cc(N3CCOCC3)c(NC(=O)c3ccc(C(C)(C)C)cc3)cc21 4.47%
COc1ccc2cc3cc(C(=O)N4CCN(c5cccc(C(F)(F)F)c5)CC4)sc3nc2c1 10.7%
COc1ccc(-c2nc3sc(CCNC(=O)C(=O)Nc4cc(F)ccc4F)c(C)n3n2)cc1 0.733%
COc1ccccc1CNc1nc2ccccc2c2nc(-c3cccc(C)c3)nn12 2.11%
Cc1cccc(CCNC(=O)c2cc3c(=O)[nH]c4ccc(C)cc4c3s2)c1 2.87%
Cc1cccc(NC(=O)CN(C)S(=O)(=O)c2ccc3c(c2)CCC(=O)N3)c1C 0.473%
CCCCOc1ccccc1Cn1c(=O)sc2ccccc21 -17.3%
Cc1c(C(=O)Nc2ccc(F)cc2)oc2ccc(S(=O)(=O)N3CCCCCC3)cc12 -15.6%
Cc1cccc(Nc2cc(C)nc(-n3nc(C)cc3C)n2)c1 6.58%
CCOc1ccc(CN2C(=O)C(=O)c3cccc(C)c32)cc1OC -5.06%
Cc1cccc(C(=O)N2c3ncnn3C3(CCCCC3)[C@@H]3CCCC[C@@H]32)c1 1.95%
CSc1ccc(CNC(=O)c2sc3ncnc(N(C)C4CCCCC4)c3c2C)cc1 -17.6%
Cc1ccc(Nc2nc3ccccc3nc2-n2nc(C)cc2C)c(Cl)c1 -10.1%
COC(=O)c1ccc2c(=O)n(CCc3ccc(S(N)(=O)=O)cc3)c(SCC(=O)C(C)(C)C)nc2c1 -0.7%
Cc1ccc(N2CCN(Cc3nnc(-c4ccccc4F)o3)CC2)c(C)c1 0.0273%
Cc1ccc(S(=O)(=O)CC(=O)Nc2nc3c(C)cccc3s2)cc1 -3.56%
Cc1ccc(-c2c3c(=O)n(C)c(=O)n(C)c3c3cnc4ccccc4n23)cc1 4.09%
COc1ccc(-c2[nH]c3c(c2-c2c(-n4cccc4)n(C)c(=O)[nH]c2=O)c(=O)[nH]c(=O)n3C)cc1F -3.68%
COc1ccc(-n2nnc(-c3nsc(NC(=O)c4cccc(C)c4)n3)c2C)cc1OC -17.1%
COc1ccccc1Nc1nc(N)nc(N)c1S(=O)(=O)c1ccccc1 5.97%
O=C(Nc1ccc(Cl)c(C(F)(F)F)c1)c1nc2ccccc2nc1N1CCCCC1 6.89%
Fc1ccc(C(NCCc2ccc(Cl)cc2)c2nnc(-c3ccccc3Cl)o2)cc1 (centres undefined) 2.37%
CCOc1ccc(NC(=O)CCc2c(C)nc3nc(-c4cc(OC)cc(OC)c4)nn3c2C)cc1 2.5%
COC(=O)c1ccccc1NC(=O)c1nn(C)c2c1COc1ccccc1-2 -29.1%
CCN1CCN(c2ncc3c(n2)CCN(Cc2cccc(F)c2F)C3)CC1 12.1%
CSc1ncc(Cl)c(C(=O)N(C)c2ccccc2)n1 4.6%
Cn1c(SCC(=O)Nc2nc3ccccc3s2)ncc(C(=O)Nc2ccc(Cl)cc2)c1=O -1.33%
Nc1nc(NCCNc2ncc(-n3ccnc3)c(-c3ccc(Cl)cc3Cl)n2)ccc1[N+](=O)[O-] -7.11%
COc1cccc(NC(=O)Cn2nnc(C(=O)NCc3ccc4c(c3)OCO4)c2N)c1 -20.8%
CCOCCCNC(=O)c1cn(CC(C)C)c(=O)c2c1c1ccccc1n2C 1.97%
COc1ccccc1Nc1ncc2c(n1)CCN(Cc1cc(F)cc(F)c1)C2 -8.67%
CN(C)c1cc(NC(=O)CNC(C)(C)C)c(O)c2c1C[C@@H]1C[C@H]3[C@H](N(C)C)C(=O)C(C(N)=O)=C(O)[C@@]3(O)C(=O)C1=C2O -0.22%
Cc1cc(C)c(NC(=O)CSc2nc(=O)n(Cc3cccnc3)c3c2CCC3)c(C)c1 3.57%
COc1ccc(S(=O)(=O)N2CCC(n3c(C)nc4cccnc43)CC2)cc1Cl -2.3%
CCCC(=O)N1c2ccccc2-c2nnc(SC)nc2OC1c1sccc1C (centres undefined) 1.21%
CN(C)c1ccc(CNC(=O)Cn2c(-c3cccs3)cc3cc(Cl)ccc32)cc1 4.41%
CCc1ccc(S(=O)(=O)Nc2cc3c(cc2C)n(C)c(=O)c(=O)n3C)cc1 0.314%
CCOC(=O)c1c(NC(=O)COc2ccc(Cl)cc2Cl)sc2c1CCCCC2 8.24%
